{
  "source": "PubChem BioAssay AID504832",
  "about": "(National Center for Advancing Translational Sciences (NCATS), 2011)",
  "note": "Where “and” joins values, the source holds several entries; their conditions need not be identical. Equal entries are not always repeated. Screen size: about 310,000 compounds; about 18,000 (5.8%) were called active. Inconclusive means that the source gave no clear call. Such entries were picked first, then a sample of the others. Calls follow the shape of the dose curve; as a rule, active = well fitted inhibition curve with a large enough effect; inconclusive = small, poorly fitted or top-dose-only effect, or another doubt; inactive = no such curve, though single readings can be large or run the other way. Potencies of inconclusive entries are left out as doubtful fits. % is scaled to controls: 0 for no effect and ±100 for the full control effect; potency is read from the fitted curve at half-maximal effect; tags tell the direction and shape of the fitted curve.",
  "data": [
    {"assay": "Primary qHTS for delayed death inhibitors of the malarial parasite plastid, 48 hour incubation", "conditions": "P. falciparum luciferase growth in erythrocytes; series mostly up to 28.7 µM", "summary_of_the_method": "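Growth was read as firefly luciferase luminescence after a 48 h, 37 C, 5% CO2 exposure of compounds to reporter-bearing P. falciparum cultures (0.1% parasitemia, 2% hematocrit final) in Albumax-supplemented RPMI 1640.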", "values": [
      {"smiles": "COc1c2c(c(C)c3c1C(=O)OC3)O[C@@]1(C)CC[C@@]3(O)C(C)(C)OC(=O)CC[C@]3(C)[C@H]1C2", "Potency": "inactive"},
      {"smiles": "Cc1nc(C)c(N)c(=O)[nH]1", "Potency": "inconclusive [inhibitor, single point]"},
      {"smiles": "O=C(O)c1ccc(C(=O)C(=O)c2ccccc2)cc1", "Potency": "inconclusive [inhibitor, single point]"},
      {"smiles": "S=C(NCCSCc1ccc(Cl)cc1)Nc1ccccc1", "Potency": "inconclusive [inhibitor, partial curve, poor fit]"},
      {"smiles": "CCOc1cc(N2CCOCC2)c(OCC)cc1NC(=O)c1[nH]c(C)c(C(C)=O)c1C", "Potency": "inconclusive [inhibitor, partial curve]"},
      {"smiles": "N#CC1=C(N)N(c2ccccc2)C2=C(C(=O)CCC2)C1c1ccsc1", "note": "(centres undefined)", "Potency": "inconclusive [inhibitor, partial curve, poor fit]"},
      {"smiles": "O=[N+]([O-])c1ccc2nc(C3CCCCC3)[nH]c2c1", "Potency": "inactive"},
      {"smiles": "Cc1ccc(N=Nc2ccc(C)cc2NC(=O)Nc2ccccc2F)cc1", "Potency": "inconclusive [inhibitor, partial curve]"},
      {"smiles": "CC(=O)c1cccc(OCc2cc(C(=O)N3CCC(N4CCCCC4)CC3)no2)c1", "Potency": "inconclusive [inhibitor, partial curve, poor fit]"},
      {"smiles": "O=C(Nc1ccc(N2CCN(C(=O)c3ccco3)CC2)c(Cl)c1)c1cccnc1", "Potency": "inconclusive [inhibitor, partial curve, poor fit]"},
      {"smiles": "CC1CCN(C(=O)c2cc3ccccc3cc2O)CC1", "Potency": "inconclusive [inhibitor, single point]"},
      {"smiles": "O=C(c1cccs1)N1CCCc2ccccc21", "Potency": "inactive"},
      {"smiles": "Cc1cc(C)n2nc(CNS(=O)(=O)c3cccc([N+](=O)[O-])c3)nc2n1", "Potency": "inactive"},
      {"smiles": "Cc1cc(C(=O)OCn2nnc3ccccc3c2=O)c(C)n1-c1ccccc1", "Potency": "inconclusive [inhibitor, full curve, poor fit]"},
      {"smiles": "CC(C)CCn1c(Oc2ccccc2Cl)nc2c1c(=O)n(C)c(=O)n2C", "Potency": "inconclusive [inhibitor, partial curve, poor fit]"},
      {"smiles": "C/C(=N\\NC(=O)C1COc2ccccc2O1)c1ccc(N2CCOCC2)cc1", "note": "(centres undefined)", "Potency": "inactive"},
      {"smiles": "CCOc1ccc(CCNC(=O)CSCc2ccc(C)cc2)cc1OCC", "Potency": "inconclusive [inhibitor, single point]"},
      {"smiles": "O=[N+]([O-])c1cc(CSC2=NCCN2)ccc1O", "Potency": "inactive"},
      {"smiles": "CCOC(=O)c1[nH]c(C)c(C(=O)OCC(=O)N2CC(=O)Nc3ccccc32)c1C", "Potency": "inconclusive [inhibitor, full curve]"},
      {"smiles": "CC1=CC(C)(C)N(S(=O)(=O)c2ccc(F)cc2)c2ccccc21", "Potency": "inconclusive [inhibitor, single point]"},
      {"smiles": "C[C@]12CCC(=O)C=C1CC[C@@H]1[C@@H]2CC[C@@]2(C)[C@H]1CC[C@@]21CCC(=O)O1", "Potency": "inconclusive [inhibitor, partial curve]"},
      {"smiles": "COc1ccc(NC(=O)CSc2nnc(-c3ccccc3Cl)n2Cc2ccco2)c(OC)c1", "Potency": "inconclusive [inhibitor, partial curve, poor fit]"},
      {"smiles": "O=C(Nc1ccc2c(c1)OCO2)C1CCN(C(=O)c2ccc(Br)cc2)CC1", "activity change, negative = inhibition": "inactive: 1.41% [at 5.75 µM]"},
      {"smiles": "O=C(/C=C/c1ccccc1)NNc1ccc(Cl)cc1", "Potency": "inconclusive [inhibitor, full curve, poor fit]"},
      {"smiles": "COc1ccc2c(c1)c1nc3ccccc3nc1n2Cc1ccc(OC)c(OC)c1", "Potency": "inconclusive [inhibitor, single point]"},
      {"smiles": "O=c1[nH]c(C2CCN(S(=O)(=O)c3cccc(Cl)c3)CC2)nc2c1nnn2Cc1ccccc1", "Potency": "inconclusive [inhibitor, partial curve]"},
      {"smiles": "CCCCc1nnc2c(N(C)S(=O)(=O)c3ccccc3)nc3ccccc3n12", "Potency": "inconclusive [inhibitor, partial curve]"},
      {"smiles": "CCOC(=O)C1CCCN(C(=O)c2cn(-c3ccccc3)nc2-c2cccnc2)C1", "note": "(centres undefined)", "Potency": "inconclusive [inhibitor, full curve, poor fit]"},
      {"smiles": "CCOc1cccc(CN2CCC(Oc3ccc(C(=O)NCc4ccccn4)cc3)CC2)c1", "Potency": "inconclusive [inhibitor, partial curve]"},
      {"smiles": "NS(=O)(=O)c1ccc(N/N=C/c2cn(-c3ccccc3)nc2-c2cccs2)c([N+](=O)[O-])c1", "Potency": "active: 1.47 µM"},
      {"smiles": "COc1cc(NC(=O)C2CSC3(C)CCC(=O)N23)c(OC)cc1Cl", "note": "(centres undefined)", "Potency": "inconclusive [inhibitor, single point]"},
      {"smiles": "O=C(c1cc(-c2ccc(Cl)cc2)n(-c2ccc(Cl)cc2)n1)N1CCOCC1", "Potency": "inconclusive [inhibitor, single point]"},
      {"smiles": "CCOC(=O)c1sc2nc(CN3CCCCC3)nc(Cl)c2c1C", "Potency": "inconclusive [inhibitor, single point]"},
      {"smiles": "COc1cccc(-c2ccc(NC(=O)C3CCCN(CCCn4cccn4)C3)cc2)c1", "note": "(centres undefined)", "Potency": "inactive"},
      {"smiles": "Cc1nc2cc(NC(=O)CCS(=O)(=O)c3ccccc3)ccc2s1", "Potency": "inactive"},
      {"smiles": "Cc1cc(C)cc(C(=O)OCC(=O)NCc2cccs2)c1", "Potency": "inactive"},
      {"smiles": "CSc1nc(N(C)NC(=O)c2cccc(C)c2)c2ccccc2n1", "Potency": "inconclusive [inhibitor, partial curve]"},
      {"smiles": "O=C(O)/C=C/C(=O)c1ccc2c(c1)NC(=O)CO2", "Potency": "active: 1.85 µM"},
      {"smiles": "CCOc1ccc(-c2nnc3sc(COc4ccc(C)cc4)nn23)cc1", "Potency": "inactive"},
      {"smiles": "O=C(CSc1nc(=O)[nH]c2c1CCCC2)Nc1cc(C(F)(F)F)cc(C(F)(F)F)c1", "Potency": "inactive"},
      {"smiles": "CC1c2nc3ccccc3n2C(CC(=O)NC2CC2)C(=O)N1Cc1ccccc1", "note": "(centres undefined)", "Potency": "inactive"},
      {"smiles": "CCOc1ccc(NC(=S)NN2C(C)CCCC2C)cc1", "note": "(centres undefined)", "Potency": "inactive"},
      {"smiles": "O=C(NCc1ccccc1)c1onc(CS(=O)(=O)c2ccccn2)c1C(=O)NCc1ccccc1", "Potency": "inconclusive [inhibitor, single point]"},
      {"smiles": "CC(C)OCCCNC(=O)c1ccc2c(c1)NC(=O)c1ccccc1S2", "Potency": "active: 3.7 µM"},
      {"smiles": "COc1ccc(NC(=O)CSc2nc3ccccc3n2-c2ccccc2)c([N+](=O)[O-])c1", "Potency": "inconclusive [inhibitor, partial curve]"},
      {"smiles": "COc1ccc(CCN2CCC(Nc3nc4ccccc4n3Cc3ccc(F)cc3)CC2)cc1", "Potency": "active: 675 nM and active: 522 nM"},
      {"smiles": "CC1=Nc2cc(C(=O)NCC3CCCO3)ccc2Sc2ccc(Br)cc21", "note": "(centres undefined)", "Potency": "inconclusive [inhibitor, partial curve]"},
      {"smiles": "CC(=O)c1ccccc1OC(=O)c1ccco1", "Potency": "inactive"},
      {"smiles": "O=C(NCCNS(=O)(=O)c1ccccc1Cl)c1cc(OCC(F)(F)F)ccc1OCC(F)(F)F", "Potency": "inconclusive [inhibitor, partial curve, poor fit]"},
      {"smiles": "CCc1ccccc1N(C(=O)c1snc(C(N)=O)c1N)C(C(=O)NCC1CCCO1)c1ccc(C)o1", "note": "(centres undefined)", "Potency": "inconclusive [inhibitor, partial curve]"},
      {"smiles": "CCN(CC(=O)NCc1cccs1)C(=O)c1cccc(S(=O)(=O)Nc2cccc(C)c2)c1", "Potency": "inconclusive [inhibitor, single point]"},
      {"smiles": "CN(C)C(=O)c1ccc(NC(=O)c2cccc(S(=O)(=O)N3CCCCCC3)c2)cc1", "Potency": "inconclusive [inhibitor, partial curve]"},
      {"smiles": "CC(=O)Nc1cc(OC(C)=O)c2nonc2c1OC(C)=O", "Potency": "active: 10.4 µM"},
      {"smiles": "CC(=O)N1CCN(c2ccnc3cc(Cl)ccc23)CC1", "Potency": "inconclusive [inhibitor, partial curve, poor fit]"},
      {"smiles": "CC(CCc1ccccc1)NCc1cccc2ccccc12", "note": "(centres undefined)", "Potency": "inconclusive [inhibitor, partial curve, poor fit]"},
      {"smiles": "CCOc1nc(-c2ccccc2)ccc1-c1noc(-c2ccco2)n1", "Potency": "inconclusive [inhibitor, single point]"},
      {"smiles": "O=C(CCC(=O)N1CCOc2ccc(Cl)cc21)NCCCN1CCN(c2ccccc2F)CC1", "Potency": "inconclusive [inhibitor, partial curve]"},
      {"smiles": "CCOC(=O)C(=CNc1ccccc1N1CCOCC1)C(=O)OCC", "Potency": "inactive"},
      {"smiles": "COc1ccc(S(=O)(=O)N2CCOCC2)cc1NC(=O)Cc1cccs1", "Potency": "inconclusive [inhibitor, single point]"},
      {"smiles": "CC(C)OCCCn1c(SCC(=O)N2CCc3ccccc32)nc2ccccc2c1=O", "Potency": "inconclusive [inhibitor, single point]"},
      {"smiles": "Cc1ccsc1C(=O)N1CCCC(CCC(=O)N2CCN(c3ccccn3)CC2)C1", "note": "(centres undefined)", "Potency": "inconclusive [inhibitor, single point]"},
      {"smiles": "Cc1ccc(F)cc1NC(=O)CCNC(=O)c1ccc([N+](=O)[O-])cc1", "Potency": "inactive"},
      {"smiles": "CC(=O)N1CCc2c(sc(NC(=O)Cc3ccc(C)cc3C)c2C#N)C1", "Potency": "inactive"},
      {"smiles": "COC(=O)C(C(=O)OC)N1C(=O)CCC1=O", "Potency": "inactive"},
      {"smiles": "Cc1ccc(OC(C)C(=O)Nc2ccccc2C(=O)N2CCOCC2)cc1", "note": "(centres undefined)", "Potency": "inactive"},
      {"smiles": "Cc1cc2c(c(=O)n1Cc1ccccc1)C1O[C@](CCCCN3C(=O)c4ccccc4C3=O)(Cc3cc(C#N)ccc31)O2", "Potency": "inconclusive [inhibitor, partial curve, poor fit]"},
      {"smiles": "CC(C)c1nn2c(=O)cc(O)nc2s1", "Potency": "inactive"},
      {"smiles": "C/C(=N\\N=C\\c1ccccc1)c1nnn(-c2nonc2N)c1C", "Potency": "inactive"},
      {"smiles": "CCCCn1c(-c2csc3c2CCC(C)C3)n[nH]c1=S", "note": "(centres undefined)", "Potency": "active: 0.928 µM"}
    ]}
  ]
}
